Assays:
A2A wt = biological target: T1, A2A wt (Homo sapiens, UniProt P29274); format: binding
T1 construct: made in house; host or cells: Sf9 insect cells (baculovirus), membranes

A2A-ΔC = biological target: T2, A2A-ΔC (Homo sapiens, UniProt P29274); format: binding
T2 construct: construct (comprising A2AAR residues 2-316) was cloned into a modified pFastBac1 vector; made in house; host or cells: Sf9 insect cells (baculovirus), membranes

Molecule | Kd (A2A wt; homologous competition vs. [3H]MSX-2, Sf9 membranes, A2A wt, read-out: Kd ± SEM) [nM] | Kd (A2A-ΔC; homologous competition vs. [3H]MSX-2, Sf9 membranes, A2A-ΔC, read-out: Kd ± SEM) [nM] | Ki (A2A wt; read-out: Ki ± SEM) [nM] | Ki (A2A-ΔC; read-out: Ki ± SEM) [nM]
MSX-2 [reference compound] | 13.3 ± 0.756 | 17.7 ± 2.02 |  | 
CC(C)(C)OC(=O)COCCOCCOCCOCCNC(=O)COc1ccc(N2CCN(CCn3ncc4c3nc(N)n3nc(-c5ccco5)nc43)CC2)cc1 [Compound 4, tert-Butyl 1-(4-(4-(2-(5-amino-2-(furan-2-yl)-7H-pyrazolo[4,3-e][1,2,4]triazolo[1,5-c]pyrimidin-7-yl)ethyl)piperazin-1-yl)phenoxy)-2-oxo-6,9,12,15-tetraoxa-3-azaheptadecan-17-oate] |  |  | 6.3 | 12.7 ± 3.3

— publication PMC9310709, “Single Stabilizing Point Mutation Enables High‐Resolution Co‐Crystal Structures of the Adenosine A2A Receptor with Preladenant Conjugates” (Angewandte Chemie (International Ed. in English), 2022)
